± gives the standard deviation. The list shows a part of the results, in another mix than the full data.

This assay has as its system MIWI (PIWIL1) piRISC loaded with L1MC piRNA (30 nt). Nature of the assay: pre-steady-state target cleavage rate (min^-1); MIWI and MILI are mouse PIWI proteins and EfPiwi is from a freshwater sponge; tags in brackets are library labels; higher = faster piRNA-guided slicing of the target. The note with it: guide: L1MC piRNA 5'p-UAACUAAAUACUAUGCAAGCUGUAGGUCCU; auxiliary factor: 500 nM mouse GTSF1. An outline of the steps:
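With or without 500 nM GTSF1 partner protein, 1 nM active affinity-purified piRISC carrying one synthetic guide was mixed with 0.1 nM transcribed, DNA-blocked target RNA library in HEPES–potassium acetate buffer at 33 °C for 0–8 or 0–960 min. Uncleaved targets were sequenced and normalised to depth and to weakly complementary targets, three trials were pooled, and k3 was capped at 0.0001 min^-1. The pre-steady-state cleavage rate came from a burst-and-steady-state fit.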
With UCCUGGAUGUGCUUGCCUAGUAUUUAGUUA, the “pre-steady-state target cleavage rate” value was determined as 0.189 ± 0.02. As to UCCUGGUACUGCUUGCAUAGAAUUUAGUUA, the “pre-steady-state target cleavage rate” value was 0.192 ± 0.051. For the sequence UCCUCCUUCAGCUUCCAUAGUAUUUAGUUA, the “pre-steady-state target cleavage rate” value turned out to be 0.0615 ± 0.018. UCCACCUUCAGCUUGCUUAGUAUUUAGUUA: the “pre-steady-state target cleavage rate” value worked out at 1.16 ± 0.037.

As to UCCUGGAUGUGCUUGCAAAGUAUUUAGUUA, the “pre-steady-state target cleavage rate” value turned out to be 0.175 ± 0.016. Turning to UGGACCUACAGCUUGCAUUGUAUUUAGUAA, the “pre-steady-state target cleavage rate” value stood at 0.559 ± 0.035. As to UCCUGGUACAGCUUGCAUUGUAUUUAGUAA, the “pre-steady-state target cleavage rate” value was 0.118 ± 0.023. For the sequence AGGAGCUACAGCUUGCUUAGUAUUUAGUUA, the “pre-steady-state target cleavage rate” value is 1.3 ± 0.061. Turning to UGGACCUACAGCUUGUAUAGUAUUUAGUUA, the “pre-steady-state target cleavage rate” value was found to be 1.77 ± 0.11. Turning to UCCUGGAUGAGCUUGCAUAGUAUUUAGAUA, the “pre-steady-state target cleavage rate” value amounted to 0.341 ± 0.046. As for UCCUGCUACAGCUUGCAUAGUAAAUAGUUA, the “pre-steady-state target cleavage rate” value was determined as 0.428 ± 0.052. As to UCGACCUACAGCUUGCAUAGUUAAUAGUUA, the “pre-steady-state target cleavage rate” value was found to be 0.122 ± 0.019. As to UCCUGGAUGAGCUAGCAAAGUAUUUAGUUA, the “pre-steady-state target cleavage rate” value came out at 0.186 ± 0.017. Consider UCCACCUACAGCUUGCAUAGUAUUUACUAA, for which the “pre-steady-state target cleavage rate” value is 0.211 ± 0.031.

Regarding UCGACCUACAGCUUGACAUAGUAUUUAGUUA, the “pre-steady-state target cleavage rate” value turned out to be 0.952 ± 0.072. Take UCCUGCUAGAGCUUGCAUAGUAUUUACUUA: the “pre-steady-state target cleavage rate” value was 0.227 ± 0.038. The value for UCCUGGGACAGCUUGCAUAGUAUUUAGUUA was 0.875 ± 0.066. The value for UCCUGGAUCAGCAUGCAUAGUAUUUAGUUA was 1.13 ± 0.067. Consider UCCUGCUACAGCCUUGCAUAGUAUUUAGUUA, for which the “pre-steady-state target cleavage rate” value was 0.919 ± 0.046. Next, AGGACCUACACCUUGCUUAGUAUUUAGUUA: 1.17 ± 0.057. On to UCGACCUACAGCUUGCAAAGUAUUUAGUAA, for which the “pre-steady-state target cleavage rate” value turned out to be 0.99 ± 0.053. The value for AGGACCUAGUCCUUGCAUAGUAUUUAGUUA was 1.05 ± 0.052. Take UCCUGGAUCAGCUGCAUAGUAUUUAGUUA: the “pre-steady-state target cleavage rate” value came to 0.277 ± 0.031. The value for AGCUCCUACAGCUUGCAUAGUAUUUAGAAA was 0.381 ± 0.056. For the sequence AGGAGCUACAGCUUGCAUACUAUUUAGUUA, the “pre-steady-state target cleavage rate” value worked out at 0.369 ± 0.012.

As for UCCUGCUACAGCUUGCAUAGUAUAUAGUUA, the “pre-steady-state target cleavage rate” value amounted to 0.433 ± 0.036. As for UCCUGGAUGAGCUUGCAUAGUAUUUCGUUA, the “pre-steady-state target cleavage rate” value was found to be 0.35 ± 0.053. The value for UCCACCUACAGCUAGCAUAGUAUUUAGAUA was 0.33 ± 0.049. Consider ACCACCUACAGCUUGCAUAGUAUUUAGUAA, for which the “pre-steady-state target cleavage rate” value amounted to 0.663 ± 0.054.

Regarding UCCACCUACAGCUUGCAUCGUAUUUAGUUA, the “pre-steady-state target cleavage rate” value is 0.455 ± 0.015.

As for UCGACCUACACCUUGCAUAGUAUUUACAAA, the “pre-steady-state target cleavage rate” value amounted to 0.353 ± 0.045. Take UCCUCCUACAGCAUGCUUAGUAUUUAGUUA: the “pre-steady-state target cleavage rate” value worked out at 0.662 ± 0.052. Turning to AGGACCUACAGCUAGCUUAGUAUUUAGUUA, the “pre-steady-state target cleavage rate” value amounted to 0.935 ± 0.057. Consider UGGACCAACAGCUUGCUUAGUAUUUAGUUA, for which the “pre-steady-state target cleavage rate” value came out at 1.64 ± 0.092.

Regarding UCCUGGAUCAGCUAGCAUAGUAUUAAGUUA, the “pre-steady-state target cleavage rate” value was 0.51 ± 0.045. UGGUCCUACAGCUUGCAUAGUAUUUAGAAA: the “pre-steady-state target cleavage rate” value was 0.396 ± 0.041. As to UCCUGCAACAGCUUGCAUACUAUUUAGUUA, the “pre-steady-state target cleavage rate” value is 0.425 ± 0.022.

“UCCUGGAUGAGCUUGCAUAGUAUUUAGUUC [g2:g21:cont:t1C]”: the “pre-steady-state target cleavage rate” value is 0.441 ± 0.027. UCCACGAUCAGCUUGCAUAGUAUUUUCAAA: the “pre-steady-state target cleavage rate” value is 0.338 ± 0.033.

The record behind these values is the supplement of paper PMC10338343.
